Target: T1, Arkadia (RNF111) RING, residues 927-994 (Ark RING, 68 aa) (human, UniProt Q6ZNA4 927-994)
T1 construct: human Arkadia (RNF111), residues 927-994, 68 aa; also called wt Ark RING; source: expressed and purified as described elsewhere [31]
T1 sequence (looked up): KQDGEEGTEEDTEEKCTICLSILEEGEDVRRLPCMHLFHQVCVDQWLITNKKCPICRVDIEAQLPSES
Test: ITC; 1-3 mM E2 in the syringe injected (2 uL, 15-19 injections) into 100-300 uM Arkadia polypeptide in the cell; 25 °C; 50 mM KH2PO4, 50 mM K2HPO4 pH 7; single-site model
Conditions: both partners purified

B1: UbcH7 K96S (enzyme)
chain: not shown
notes: human UbcH7 (UBE2L3) with K96S (KPA motif changed to SPA); also called mutant UbcH7; source: site-directed mutagenesis; expressed and purified as the wild type
  dH: -0.9 kcal/mol
  stoichiometry N: 1

From PMC9954413 (Cancers, 2023)
